Results taken from the supplement of paper PMC12217912.
The list shows a part of the results. The full chains were built here from the parent and the listed change. Values near 0.05 are background.

B1: TEV protease; numbered along this chain (parent)
chain: MGESLFKGPRDYNPISSSICHLTNESDGHTTSLYGIGFGPFIITNKHLFRRNNGTLVVQSLHGVFKVKDTTTLQQHLVDGRDMIIIRMPKDFPPFPQKLKFREPQREERICLVTTNFQTKSMSSMVSDTSCTFPSGDGIFWKHWIQTKDGQCGSPLVSTRDGFIVGIHSASNFTNTNNYFTSVPKNFMELLTNQEAQQWVSGWRLNADSVLWGGHKVFMVKPEEPFQPVKEATQL

Variants of: B1
Test: raw area under fraction-flipped curve 0-4 h after induction (AUC4h, not background-subtracted), DNA-recorder readout of cleavage of the substrate (dimensionless); higher = more cleavage of the substrate by the protease variant
Details: temperature: 34 °C; time window: 0-4 h after rhamnose induction
Experimental: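 In vivo DNA recorder in E. coli TOP10(DE3) ΔrhaA at 34 °C. Each TEVp single-site mutant (parent TEVp 0) is paired with a single-site variant of the 7-mer TEVs (canonical ENLYFQ|S). The substrate sits between flexible linkers in a Bxb1-sfGFP-TEVs-SsrA fusion, so cleavage stabilises Bxb1 and speeds flipping of a recombination array, read by NGS. The value is the raw area under the fraction-flipped curve over 0-4 h after rhamnose induction (AUC4h), with ≥20 reads per time point. It is not background-subtracted; inactive controls average about 0.047.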
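Further: Bxb1 expression induced with 0.2% (w/v) L-rhamnose at OD600 near 0.5, cultures sampled hourly, flipped fraction per protease–substrate barcode pair counted by paired-end Illumina sequencing.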

| Variant | area with substrate ENAYFQS | area with substrate ENCYFQS | area with substrate ENDYFQS | area with substrate ENEYFQS | area with substrate ENFYFQS | area with substrate ENGYFQS | area with substrate ENHYFQS | area with substrate ENIYFQS | area with substrate ENKYFQS | area with substrate ENNYFQS | area with substrate ENPYFQS | area with substrate ENQYFQS | area with substrate ENSYFQS | area with substrate ENVYFQS | area with substrate ENYYFQS | area with substrate ENMYFQS | area with substrate ENRYFQS | area with substrate ENTYFQS | area with substrate ENWYFQS |
| --- | --- | --- | --- | --- | --- | --- | --- | --- | --- | --- | --- | --- | --- | --- | --- | --- | --- | --- | --- |
| E103G | 0.0505 | 0.0614 | 0.043 | 0.0577 | 0.0636 | 0.0607 | 0.0536 | 0.0884 | 0.0532 | 0.0583 | 0.0644 | 0.0612 | 0.0648 | 0.0694 | 0.0748 | – | – | – | – |
| P96S | 0.0636 | 0.0688 | – | – | 0.0509 | 0.0768 | 0.0684 | 0.124 | 0.0561 | 0.0538 | – | 0.0643 | 0.067 | – | 0.108 | 0.0768 | 0.0669 | – | – |
| P96Y | 0.102 | 0.0575 | – | 0.0624 | 0.0481 | – | 0.0875 | – | 0.0842 | 0.0412 | 0.0496 | 0.037 | 0.0898 | 0.0723 | – | – | 0.0361 | – | – |
| K120P | 0.0591 | – | 0.0527 | – | – | 0.0604 | 0.008 | 0.106 | 0.0517 | – | 0.0454 | 0.0514 | 0.0527 | 0.0752 | – | – | – | 0.0554 | – |
| K120G | 0.0804 | 0.0683 | – | 0.0699 | 0.0609 | 0.061 | – | 0.101 | – | 0.07 | – | 0.0519 | 0.0552 | – | 0.0698 | 0.0854 | 0.0513 | – | – |
| K120W | 0.0661 | 0.0766 | 0.0557 | 0.0824 | – | 0.0556 | 0.0586 | – | – | 0.051 | – | 0.0558 | 0.061 | – | 0.0681 | 0.0738 | 0.0735 | 0.0587 | 0.0426 |
| K120F | 0.052 | 0.0651 | 0.061 | 0.065 | 0.0688 | 0.0695 | – | 0.0963 | 0.0605 | – | 0.0539 | 0.0668 | 0.0598 | – | 0.0705 | – | – | 0.063 | 0.0614 |
| K120H | 0.0435 | 0.0528 | 0.0448 | 0.0662 | 0.0415 | – | 0.0577 | 0.0147 | – | 0.0642 | – | 0.0496 | 0.0463 | – | – | – | 0.0419 | 0.082 | – |
| K120Y | 0.0493 | 0.0665 | 0.0574 | – | 0.0548 | 0.0589 | – | 0.0939 | 0.0372 | 0.0711 | 0.0508 | 0.0501 | 0.0499 | 0.0614 | – | – | 0.0574 | 0.051 | 0.0088 |
| L112I | 0.0723 | 0.0578 | 0.0608 | 0.0529 | 0.0617 | 0.0483 | 0.0593 | 0.104 | 0.0701 | 0.0586 | 0.0578 | 0.0698 | 0.0754 | 0.0658 | 0.0487 | 0.0635 | 0.0816 | – | – |
| L112W | 0.058 | 0.0604 | 0.0604 | 0.0593 | 0.0566 | – | 0.025 | 0.068 | 0.0469 | 0.0685 | 0.0462 | 0.0596 | 0.0583 | 0.0684 | 0.0512 | 0.0619 | 0.0592 | – | – |
| L112F | 0.0742 | 0.0603 | 0.0603 | 0.0686 | 0.0694 | 0.0569 | – | – | – | – | 0.0597 | 0.0575 | 0.0666 | 0.0752 | 0.0586 | 0.0638 | 0.0638 | 0.0528 | 0.0512 |
| L112Q | 0.0614 | – | 0.0671 | 0.0581 | 0.0577 | 0.057 | 0.0642 | 0.0827 | – | – | 0.057 | 0.0623 | 0.0618 | 0.0653 | – | – | 0.0483 | – | – |
